The list shows a part of the results.
What follows are sequences tested on PfHDP1 homeodomain (GST-tagged) (assay: gcPBM binding intensity (ln(normalized median fluorescence intensity)); higher = stronger DNA binding).
Outline: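 In this array assay, P. falciparum DNA-binding domains with a GST tag, expressed in E. coli, were applied for 1 h to primer-extended double-stranded 36-bp intergenic genomic probes and negative controls on an Agilent 4 × 180k array. Bound protein was visualised with Alexa488 anti-GST antibody at 488 nm. Binding intensity is the highest Masliner-normalised natural-log median intensity across replicate spots of either probe orientation.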

Row | Sequence | gcPBM binding intensity (ln)
1 | TGAAATAACCCATGTGCATGCACTTCAATAACTGAA [TGCATGCA_site1041] | 9.44
2 | TATAAATTAAAATCAGTGCATATTTTGAAAAACCTC | 8.78
3 | TATAAATTATAAATTGCACACATATTTTTATATTTA [CACACA_site8974] | 10.1
4 | ATATTATTATTAGTTTCACACATTTAATGAAACTAA [CACACA_site5677] | 6.55
5 | GTTATAATTTAGTCAAGTACATGCGTATGTATATTC [XGTACX_site3763] | 6.44
6 | TATACAGATAAATACACACACATATATATATATATA [CACACA_site4178] | 9.31
7 | ATATATATATGTGTGTGTACATATGATTTCGCACTT [XGTACX_site4449] | 8.65
8 | TAATATATATTATATACACACATATATATATATATA [CACACA_site428] | 9.27
9 | CACAGAAATATTCTTATACACACTGTTCTTATATTC [CACACA_site288] | 6.56
10 | TGTATGTTAAATACAACACACAAAAAAAAACAAGTT [CACACA_site4324] | 6.41
11 | TACCACTTTCGAAGTAGTACATGGCTTTTTTTTTTT [XGTACX_site8379] | 6.11
12 | TATAACTTTTTTAATACACACAAATATTTATTTATA [CACACA_site7425] | 6.64
13 | GGCATACACGAACACACACACACACGCACATATATA [CACACA_site6426] | 8.13
14 | TTTTACGTGAGTAATACACACATATAAGTTTATATA [CACACA_site4120] | 6.67
15 | TTTTTGTATTCTCCGGACTACATTATGTTGTAAATG [CACACA_negctrl_site691] | 6.69
16 | GTAATAAAAAATTAATGTACTTTATATAATATATTA [XGTACX_site5935] | 6.09
17 | GTATAAAAATTTAGGAGTACAATATATTTATAATAT [XGTACX_site2127] | 6.5
18 | TCTAATTTAAAATACACACACATATCTATAATATAT [CACACA_site7029] | 6.66
19 | TATTTGTAAAGACATGCATGGTACTTTTAAAACATA [TGCATGCA_site7] | 6.52
20 | TGTAGATAAAATAAACGTACGTATTGATTTTTTTCA [XGTACX_site1610] | 6.04
21 | CAGTTGTTAATTTGTGTGCACCAAATATTATACATA | 10.5
22 | ATAATTCCATAAAATAGACACACGAATGTATAATAT [CACACA_site477] | 6.54
23 | ACATATGAATATAATACACACTTGTATTCTTAATAT [CACACA_site5085] | 6.43

Row | Sequence | gcPBM binding intensity (ln)
24 | TTAATATTTGTTCTGATCCTTTTATTCAACTTTTTT [CACACA_negctrl_site536] | 6.57
25 | TGGTAATACCCATACACACACACATACACATATATA [CACACA_site8877] | 7.04
26 | TTTTCTTTCTTGTTTCGTATATTATAAAAAAAAAAG [CACACA_negctrl_site854] | 6.52
27 | TATTTGGGTATTTTTACACACATTAAAATATATATA [CACACA_site5800] | 6.21
28 | GTATTTTGCATAAATGCATGTAAATATATACCTACC [TGCATGCA_site957] | 7.28
29 | CCATATGATATATATTGTACATTATATATTATTTCT [XGTACX_site1697] | 6.61
30 | TATGTTGTTTATTTAGTGCATATTTAAATATTATAA [GTGCAC_site9601] | 8.87
31 | AATGACATTCTTACACGTACAAAATAAAAAATAAAA [XGTACX_site6932] | 6.75
32 | ATTTATTTTATAATATATAAATGATATATCTTATTA [CACACA_negctrl_site66] | 6.18
33 | TATATATTATATTCATGTACGTAAAAATTTTGAATA [XGTACX_site6734] | 6.69
34 | TGTACAGTAAATACAACACACATTTGTATAAATATA [CACACA_site4705] | 6.54
35 | TATTGTATAAAAATAACATGCAATCCTTATACTGCT [TGCATGCA_site345] | 6.34
36 | GGACTTTATAAAAATGGTACACGCAATTCTATAATC [XGTACX_site6515] | 6.3
37 | TAATATATAAAAAGATGTACTTTTGCAAGTTCCTTT [XGTACX_site8519] | 6.41
38 | ATATATATATATGTATGTACGTATGTATGTATGAAT [XGTACX_site4857] | 9.01
39 | GGTACATACAAACACACACACAAAAAAAAAAAAATA [CACACA_site1577] | 6.46
40 | ATATTTTCCCTTTATAGGAGCACAAAAATTAAATGT [CACACA_negctrl_site1114] | 7.2
41 | CAGATAAGATTTTGTGGTACTATTTATTAAATTAGA [XGTACX_site2644] | 6.06
42 | ATTCGGATCTATAAGTGTACACAATCTAGCGAAAAG [XGTACX_site3088] | 6.47
43 | TATACGCAGAAACACACACACAAAAAAAAAAAAAAA [CACACA_site427] | 6.27
44 | TATAATAAATCGAACTGTACATATATATATATATAT [XGTACX_site7097] | 9.32
45 | ATTTTTTTTGCTAAGTGTACACAAATGTTTATTAAT [XGTACX_site7440] | 7.56

— the supplement of paper PMC11417369
